Results reported in PubChem BioAssay AID1345082 (National Center for Advancing Translational Sciences (NCATS), 2018).
Screen size: about 94,000 compounds; about 4,000 (4.3%) were called active. Inconclusive means that the source gave no clear call. Such entries were picked first, then a sample of the others. Calls follow the shape of the dose curve; as a rule, active = well fitted inhibition curve with a large enough effect; inconclusive = small, poorly fitted or top-dose-only effect; inactive = no such curve, though single readings can be large or run the other way. Potencies of inconclusive entries are doubtful fits and often do not repeat.

Test: Cytotoxic Profiling in NIH 3T3 Cell Line of Diverse Libraries Using Quantitative High-Throughput Screening; also: nearly all actives have a fitted effect of over 55% in size
Settings: NIH 3T3 viability, CellTiter-Glo ATP luminescence, 48-72 h; activity change, negative = cytotoxicity: at 96.7 µM (top of the series) unless noted; series mostly up to 96.7 µM
In short: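 ATP-dependent luminescence (CellTiter-Glo) served as the viability signal for NIH 3T3 cells treated with compound for 48 or 72 hr at 37 °C.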
% is scaled to controls: 0 for no effect and ±100 for the full control effect; potency is read from the fitted curve at half-maximal effect; tags tell the direction and shape of the fitted curve.

Structure (SMILES)	Potency	activity change, negative = cytotoxicity	outcome
Cc1oc(C(O)c2ccccc2F)nc1C(=O)Nc1ccc(C(N)=O)cc1 (configuration not stated)	inconclusive: 31.6 µM [inhibitor, partial curve, poor fit]		
COc1ccc(CNC(=O)c2ccc(-c3ccc(N4CCSCC4)nc3)cc2)cc1OC	inconclusive: 11.2 µM [inhibitor, full curve]		
COc1ccc(CNC(=O)C2CCN(C(=O)C3CN(c4ccc(OC)cc4)C(=O)N3)C2)cc1 (configuration not stated)	inconclusive: 35.5 µM [inhibitor, partial curve, poor fit]		
CC1(C(=O)NCc2ccsc2)CCOCC1		inactive: 0.757% [at 174 µM]	
COc1ccc(C(=O)N2C[C@@H](Oc3cccnc3)C[C@H]2C(N)=O)cc1F		inactive: -1.64%	
c1ccc(Oc2cc3c(cn2)NCCN(Cc2ccc4[nH]ccc4c2)C3)cc1	inconclusive: 44.7 µM [inhibitor, partial curve, poor fit]		
Cc1nn(-c2ccccc2)c(Oc2ccccc2F)c1CCC(=O)NCc1ccco1	inconclusive: 50.1 µM [inhibitor, partial curve, poor fit]		
O=C(NC1CCN(C(=O)c2ccc(-c3cncnc3)cc2)CC1)c1ccccc1		inactive: -27.3%	
O=C(C1CC1)N1CC[C@H](c2nc3ccccc3s2)C1		inactive: -7.86% [at 174 µM]	
Cc1nc(-c2cccc(Cl)c2)n(CC(=O)NCc2ccc(F)cc2)c(=O)c1CCO	inconclusive: 50.1 µM [inhibitor, partial curve, poor fit]		
CCOc1ccccc1CN1CCC(C)(c2noc(C3CCOCC3)n2)CC1		inactive: -29.2%	
COc1ccccc1Cn1c(=O)c(C(=O)NCc2ccccc2)nc2cccnc21	inconclusive: 70.8 µM [inhibitor, single point]		
CC(C)c1ccc(C(=O)N2CCC(n3c(=O)[nH]c4ccccc43)CC2)cc1		inactive: -17.2%	
COc1ccc(NC(=O)CN2C(=O)NC3(CCCCC3)C2=O)cc1Cl	inconclusive: 70.8 µM [inhibitor, single point]		
O=C(c1ccccc1F)N1CCN(c2cc(-c3ccc(F)cc3)[nH]n2)CC1	inconclusive: 28.2 µM [inhibitor, partial curve]		
Cc1ccc(C)c(NC(=O)C2CCN(c3cc(C(F)(F)F)ncn3)CC2)c1	inconclusive: 44.7 µM [inhibitor, partial curve, poor fit]		
O=C1NCc2ccccc2CC12CCN(CC1CC=CCC1)CC2 (configuration not stated)		inactive: -2.14%	
OCCOc1ccccc1CN1CCCC(N2CCN(c3ccccc3)CC2)C1 (configuration not stated)		inactive: -16.5%	
Oc1ccc(-c2nc(C3CC3)nc3c2CCN(Cc2ccc(OC(F)(F)F)cc2)CC3)cc1	inconclusive: 50.1 µM [inhibitor, partial curve, poor fit]		
O=C1C(N2CCN(S(=O)(=O)c3cc(F)cc(F)c3)CC2)CCN1CCc1ccccc1 (configuration not stated)	inconclusive: 44.7 µM [inhibitor, partial curve, poor fit]		
O=C(NCCc1c[nH]c2ccccc12)[C@@H]1C[C@H]2C(=O)NCCCCCCN(C(=O)c3ccco3)[C@H]2C1		inactive: 0.265%	
CCOc1ccc(CN2C[C@@H]3C(=O)N(CCN4CCc5ccccc5C4)C(=O)[C@@H]3C2)cc1	inconclusive: 44.7 µM [inhibitor, partial curve, poor fit]		
COc1ccc(C(=O)N2CCC(n3cc(-c4nc(-c5ccccc5)no4)nn3)CC2)c(C)c1	inconclusive: 44.7 µM [inhibitor, partial curve, poor fit]		

Structure (SMILES)	Potency	activity change, negative = cytotoxicity	outcome
c1cc(CNC[C@H]2Cn3cc(-c4ccc5c(c4)OCCCO5)nc3CO2)ccn1		inactive: -19.7% [at 138 µM]	
Cn1cccc1CN1CCC2(C1)C(=O)N(Cc1ccccc1)c1ccccc12 (configuration not stated)	inconclusive: 50.1 µM [inhibitor, partial curve, poor fit]		
Cc1nn(-c2ccc(C(F)(F)F)cc2)c(C)c1[C@@H]1C=C[C@@H](NC(=O)c2cccs2)C1	active: 28.2 µM		
Cc1ccc(C(=O)NC2CCCN(Cc3cccc(-c4ccc(C)c(Cl)c4)c3)C2)cc1 (configuration not stated)		inactive: 0.326%	
CCOC(=O)C1(Cc2ccc(OC)cc2)CCN(C(=O)c2cccc(Cl)c2)CC1	inconclusive: 44.7 µM [inhibitor, partial curve, poor fit]		
O=C1NCCCCCCN(C(=O)CC2CCCCC2)[C@H]2C[C@H](c3nc(-c4cccnc4)no3)C[C@@H]12	inconclusive: 50.1 µM [inhibitor, partial curve, poor fit]		
COc1ccc2[nH]c(CNc3cc(C4CC(N)C4)nc(C)n3)cc2c1 (configuration not stated)		inactive: -15.7%	
CN1CCN(C)c2cc(-c3ccc(N4CCOCC4)cc3)ncc2C1	inconclusive: 39.8 µM [inhibitor, full curve]		
COc1ccccc1-c1ccc(C(=O)O)cc1		inactive: -6.43% [at 138 µM]	
CC(C)C[C@@H]1N[C@H](C(=O)NCC2CC2)Cc2cn(Cc3nccn3C)c3cccc1c23	active: 63.1 µM		
O=C(COc1ccccc1)N1CC(c2noc(COc3ccccc3)n2)C1	inconclusive: 50.1 µM [inhibitor, partial curve, poor fit]		
CCn1ccnc1CN1CCN(C2CCCCC2)C(CCO)C1 (configuration not stated)		inactive: -12.2%	
COc1ccc(C2(C(=O)N3CCC4(CCCN(C)C4=O)C3)CCCC2)cc1 (configuration not stated)	inconclusive: 28.2 µM [inhibitor, full curve, poor fit]		
CCN1C(=O)CCN(C(=O)NCC(C)C)CC12CCOCC2		inactive: -2.94%	
O=C(C1CCOCC1)N1CCc2c(n(Cc3ccccc3)n(-c3ccccc3)c2=O)C1	active: 100 µM		
CN1[C@@H](CCC(=O)N2CCc3ccccc32)CNC(=O)[C@@H]2[C@H]1CCN2Cc1ccccc1	inconclusive: 44.7 µM [inhibitor, full curve]		
COc1ccc(-c2noc(C(=O)O)c2[C@@H](C)NC(=O)c2cccn2C)cc1		inactive: -22.7% [at 174 µM]	
CC(C)Cc1cc(CC2(NCc3ccccc3O)COC2)no1	inconclusive: 112 µM [inhibitor, single point]		
COc1ccc(C2Cn3nnc(C(=O)N4CCN(C(=O)c5cccc(C)c5)CC4)c3CO2)cc1 (configuration not stated)	inconclusive: 39.8 µM [inhibitor, partial curve, poor fit]		
O=C(c1ccccc1)N1CCC2(CC(c3cccc(C(F)(F)F)c3)=NO2)C1 (configuration not stated)	inconclusive: 50.1 µM [inhibitor, partial curve, poor fit]		
O=C(c1ccc(F)c(F)c1)N1CCC2(CC1)N=C(c1cccc(Br)c1)NO2	inconclusive: 50.1 µM [inhibitor, partial curve, poor fit]		
COC[C@@H]1CN(Cc2ccc3cc[nH]c3c2)C[C@H]1c1nc(C)no1		inactive: -14.1%	
CC1(C)[C@H](Cc2cc(COc3ccccc3)on2)C[C@@H]1NC1CCC1	active: 31.6 µM		

Structure (SMILES)	Potency	activity change, negative = cytotoxicity	outcome
CC(C)(C)C1CCC2(CC1)NC(=O)N(CC(=O)Nc1ccccc1)C2=O (configuration not stated)	inconclusive: 70.8 µM [inhibitor, single point]		
CC(=O)N1CCN(C(=O)[C@@H]2Cc3cn(Cc4cc(C)on4)c4cccc(c34)[C@H](CC(C)C)N2)CC1		inactive: -7.42%	
CCN1c2cc(C(=O)Nc3cccc(C(C)C)c3)ccc2C(=O)N2CCCCCC21 (configuration not stated)	active: 31.6 µM		
CNC(=O)c1cc2cc(-c3c(C)noc3C)nc(-c3cccc(CO)c3)c2o1	inconclusive: 12.6 µM [inhibitor, full curve, poor fit]		
CN1CCC(NC[C@H]2O[C@H](Cc3cc(-c4cccc(O)c4)on3)CC[C@@H]2O)CC1		inactive: -1.94% [at 174 µM]	
O=C(c1cccc(Cl)c1)N1CCN(c2nccc(Nc3ccccc3F)n2)CC1	inconclusive: 39.8 µM [inhibitor, partial curve, poor fit]		
O=c1c2c(n(Cc3cccnc3)n1CCc1ccccc1)CN(CC1CCOC1)CC2 (configuration not stated)	active: 44.7 µM		
Cn1ncc2c(C(=O)N3CCC(C#N)CC3)cc(-c3ccc(C(F)(F)F)cc3)nc21	inconclusive: 50.1 µM [inhibitor, partial curve, poor fit]		
COCCN1CCNc2nc(COc3ccccc3OC(F)(F)F)n(Cc3ccccc3)c2C1=O	inconclusive: 50.1 µM [inhibitor, single point]		
COc1ccc(Cl)cc1S(=O)(=O)N1CCCC(Cn2c(C)nc3cccnc32)C1 (configuration not stated)	inconclusive: 35.5 µM [inhibitor, partial curve]		
Cc1cnc(CCNC(=O)Nc2ccc3c(c2)OCCO3)n1C1CC1		inactive: -20.7%	
c1ccc(-c2cc(CC3(NCc4cnc5ccccc5c4)COC3)no2)nc1		inactive: -4.95% [at 138 µM]	
CCn1nccc1C(=O)N1CC(Oc2ccc(-c3noc(-c4cccnc4)n3)cc2)C1	inconclusive: 3.55 µM [inhibitor, full curve, poor fit]		
O=C(Nc1ccc(F)c(F)c1)c1ccc(Cn2ccn3nc4c(c3c2=O)CCCC4)cc1	inconclusive: 35.5 µM [inhibitor, partial curve, poor fit]		
c1ccc(CN2CCC(Oc3nccnc3N3CCc4ccccc43)C2)nc1 (configuration not stated)	inconclusive: 44.7 µM [inhibitor, partial curve, poor fit]		
O=C(Nc1cnc(-c2ccccc2)nc1)c1ccco1		inactive: -3.5%	
O=C(O)CCC(=O)N[C@H]1CCN2C(=O)c3cc(/C=C/c4ccccc4)ccc3NC(=O)[C@H]12		inactive: -18.8% [at 174 µM]	
CC(=O)NCC(=O)N1CCCC(Nc2ccc(F)cc2)C1 (configuration not stated)			inactive
O=C(c1cccc([N+](=O)[O-])c1)N1CCc2c(c3ccccc3n2CC2CC2)C1	inconclusive: 39.8 µM [inhibitor, partial curve]		
Cc1ccsc1C(=O)N1CCc2onc(-c3ccc(F)c(F)c3)c2C1	inconclusive: 44.7 µM [inhibitor, partial curve]		
CC(C)C(=O)NCC1CN(Cc2ccccc2)C(=O)c2c(ccnc2-c2ccc(OCC(=O)O)cc2)O1 (configuration not stated)	inconclusive: 20 µM [inhibitor, full curve, poor fit]		
